# Reference: PubChem BioAssay AID686978 (National Center for Advancing Translational Sciences (NCATS), 2013)
# The whole screen tested about 420,000 compounds, of which about 64,000 (15%) were called active. The shares of active, inactive and inconclusive entries below differ from those in the screen. Calls follow the shape of the dose curve; as a rule, active = well fitted inhibition curve with a large enough effect; inconclusive = small, poorly fitted or top-dose-only effect; inactive = flat fitted curve, though single readings scatter. No potency is given beside an inconclusive call; the fits are too rough.
# Assay: qHTS for Inhibitors of human tyrosyl-DNA phosphodiesterase 1 (TDP1): qHTS in cells in absence of CPT; also: nearly all actives have a fitted effect of over 55% in size
# Settings: DT40 Tdp1-/- hTDP1 cells, no CPT, ATP luminescence, 48 h; activity change, negative = growth inhibition: at 46.2 µM (top of the series) unless noted
# Method in brief: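 Luminescent ATP content (CellTiter-Glo) served as the growth readout. Knockout chicken DT40 cells expressing human TDP1 were exposed to compounds without camptothecin for a minimum 48 hr at 37 °C.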
# % is scaled to controls: 0 for no effect and ±100 for the full control effect; potency is read from the fitted curve at half-maximal effect; tags tell the direction and shape of the fitted curve.
Structure (SMILES),Potency,"activity change, negative = growth inhibition"
CN(C)c1nc(-c2cn(CCC#N)c3ccccc23)cs1,"inconclusive [inhibitor, single point]",
COc1cc(/C=N/Nc2cccc(C)c2)cc(Br)c1O,,inactive: 4.18%
COc1ccc(/C=C/C(=O)OCC(=O)Nc2c(C)cccc2C)cc1,,inactive: -10.1%
CCN(C(C)=O)c1cnc(C=NNC(N)=S)c2ccccc12,active: 4.61 µM,
Cc1nnc(SCCCn2c(N3CCN(c4ccccc4)CC3)nc3c2c(=O)[nH]c(=O)n3C)s1,"inconclusive [inhibitor, single point]",
Cc1nc(N/N=C/c2ccc(O)cc2O)cc(N2CCOCC2)n1,"inconclusive [inhibitor, single point]",
Cc1cccc(C2Nc3ccccc3C(=O)N2NC(=O)c2ccc([N+](=O)[O-])cc2)n1 (stereo not given),,inactive: -5.67%
COc1cccc(-c2ncc3ccccc3c2COC(=O)CCCC(=O)O)c1,,inactive: 3.06%
COc1ccc(Cl)cc1NC(=O)CN(c1cccc(C)c1C)S(C)(=O)=O,"inconclusive [inhibitor, single point]",
CCCCCNC(=O)C(c1cc2ccccc2o1)n1c(=O)c(-c2ccccc2)nc2ccccc21 (stereo not given),"inconclusive [inhibitor, single point]",
CC1(C)CC(NC(=O)C2CCC(=O)N(Cc3ccccc3F)C2)CC(C)(C)C1 (stereo not given),"inconclusive [inhibitor, single point]",
Cc1cc(C)cc(NC(=O)CSc2nc3c(c(=O)n2C)SC(C)C3)c1 (stereo not given),,inactive: -22%
Cc1nn(S(=O)(=O)c2ccc([N+](=O)[O-])cc2)c(C)c1Sc1ccccc1,"inconclusive [inhibitor, single point]",
COc1ccc(S(=O)(=O)NCC(c2cccnc2)N2CCN(Cc3ccccc3)CC2)cc1 (stereo not given),,inconclusive: -30.5% [inhibitor]
COc1cc(/C=N/N2CCN(C3c4ccccc4-c4ccccc43)CC2)cc(OC)c1O,"inconclusive [inhibitor, single point]",
COC(=O)c1ccc(COc2cc([N+](=O)[O-])cc3cccnc23)o1,,inactive: -22.6%
O=C(CSc1nc2ccccc2o1)Nc1ccccc1N1CCOCC1,"inconclusive [inhibitor, single point]",
COc1ccccc1NC(=S)N/N=C/c1cccc(C)c1,"inconclusive [inhibitor, single point]",
c1cc(CNC23CC4CC(CC(C4)C2)C3)ccn1,,inactive: -4.44%
O=c1oc(-c2ccccc2NS(=O)(=O)c2ccc(Cl)cc2)nc2ccccc12,"inconclusive [inhibitor, single point]",
CC(Oc1cccc(Cl)c1)C(=O)Nc1cc(=O)n(C)c(=O)n1C (stereo not given),active: 13 µM,
Clc1ccccc1-c1nc(/C=N/N2CCOCC2)c2ccccn12,"inconclusive [inhibitor, single point]",
CCNC(=O)c1ccccc1SCC(=O)Nc1ccc(F)cc1,"inconclusive [inhibitor, single point]",
O=[N+]([O-])c1ccc(N2CCN(S(=O)(=O)c3ccccc3[N+](=O)[O-])CC2)cc1NCc1cccnc1,"inconclusive [inhibitor, single point]",
COc1ccc(-c2csc3ncnc(NCCO)c23)cc1,"inconclusive [inhibitor, full curve]",

Structure (SMILES),Potency,"activity change, negative = growth inhibition"
COC(=O)c1ccc(Nc2nc(C)cc(C)n2)cc1,,inactive: -7.49%
C[C@H](CO)N1C[C@H](C)[C@@H](CN(C)Cc2ccccc2)OCCCC[C@H](C)Oc2ccc(N(C)C)cc2C1=O,,inactive: -7.36%
Cc1cccc(OCc2nnc(SCC(=O)N(C)C3CCCCC3)o2)c1,"inconclusive [inhibitor, partial curve]",
Cc1ccc(OCC(O)Cn2c(NCCc3ccccc3)nc3c2c(=O)[nH]c(=O)n3C)cc1 (stereo not given),,inconclusive: -31.8% [inhibitor]
CN(C)c1ccc(C(=O)C(=O)N2CCN(c3ccccc3)CC2)cc1,"inconclusive [inhibitor, single point]",
Nc1cc(=O)[nH]c(SCc2csc(-c3ccccc3)n2)n1,"inconclusive [inhibitor, single point]",
O=C(O)CC/C(=C/c1cccc(NC(=O)c2ccccc2Cl)c1)c1nc2ccccc2s1,"inconclusive [inhibitor, single point]",
O=C1CC(c2ccccc2)CC2=C1CN(C1CCCCC1)CN2 (stereo not given),"inconclusive [inhibitor, single point]",
COc1ccc(NC(=O)c2cc(-c3cccs3)on2)cc1,"inconclusive [inhibitor, partial curve]",
O=C(Nc1n[nH]c(C2CCCCC2)n1)C1CCCCC1,,inactive: -20.6%
O=Cc1ccc(OCCCOc2cccc3cccnc23)cc1,"inconclusive [inhibitor, single point]",
Cc1n[nH]c(=S)n1/N=C/c1ccc(-c2ccc(Cl)cc2)o1,,inactive: -3.5%
O=C(CSc1nc2c([nH]c3ccccc32)c(=O)n1-c1ccc(Cl)cc1)NCc1ccccc1,"inconclusive [inhibitor, partial curve]",
CCN(CC)C(=O)COC(=O)c1cc(-c2ccco2)nc2ccccc12,"inconclusive [inhibitor, partial curve]",
O=C(O)/C=C/c1cnc2ccccc2c1,,inactive: -20.9%
COc1ccc(C(=O)N2CCN(c3cccc(Cl)c3)CC2)c(OC)c1,active: 11.6 µM,
Cn1c(NCc2ccco2)nc2c1c(=O)n(Cc1ccc(Cl)cc1)c(=O)n2C,active: 18.4 µM,
CCc1nc(N2CCN(S(C)(=O)=O)CC2)c2c3c(sc2n1)CCCC3,"inconclusive [inhibitor, single point]",
COc1cccc(C(=O)N(Cc2ccc(N(C)C)cc2)Cc2ccco2)c1,"inconclusive [inhibitor, single point]",
NC(=O)c1cccc(-c2ccnc3c2CC(C(=O)NCC2CC2)O3)c1 (stereo not given),,inactive: 1.55%
CCc1ccc(CNC(=O)CN2C(=O)CSc3ccc(S(=O)(=O)N4CCOCC4)cc32)cc1,"inconclusive [inhibitor, single point]",
COc1cc(C(=O)Nc2ccc3c(c2)CCN3C(C)=O)cc(OC)c1OC,active: 2.06 µM,
COc1ccc(N(C(=O)CCC(=O)Nc2cc(C)on2)C(C(=O)NC2CCCC2)c2ccco2)cc1 (stereo not given),,inactive: -4.06%
Cc1cccc(CN2CCN(C3CN(Cc4ccc([N+](=O)[O-])cc4)S(=O)(=O)C3)CC2)c1 (stereo not given),active: 23.1 µM,
CCC(=O)NCCNc1nc2cc(C)c(C)cc2cc1C#N,,inactive: -13.5%

Structure (SMILES),Potency,"activity change, negative = growth inhibition"
COc1cccc(-c2cc(C(=O)NC3CCCCC3)no2)c1,,inactive: -2.04%
N#CCC(=O)N/N=C/c1coc2ccccc2c1=O,,inactive: 5.36%
Cc1cc(C=O)c(C)n1-c1ccc(NC2CCCCC2)c([N+](=O)[O-])c1,"inconclusive [inhibitor, single point]",
CC(C)c1cc(NC(=O)CCl)on1,active: 9.2 µM,
Cn1ccc2c(N3CCCCCCC3)cc3c(c21)C1CCC3O1 (stereo not given),active: 20.6 µM,
CCCN=C1N(C)C[C@@H]2[C@@H]3C(=O)N(Cc4ccccc4)C(=O)[C@@H]3[C@](C)(C(=O)OC)N12,,inactive: 2.25%
CCc1ccc(S(=O)(=O)NCc2cccn2Cc2cccc(C)c2)cc1,"inconclusive [inhibitor, single point]",
CCCCc1c(C)[nH]c(=S)[nH]c1=O,,inactive: 1.9%
CCc1ccc(OCC(O)CNC(C)(C)C)cc1 (stereo not given),"inconclusive [inhibitor, full curve, poor fit]",
CCCCN(CCCC)Cc1cc2ccccc2c2c1COC2,"inconclusive [inhibitor, single point]",
Cc1oc2cc3oc(=O)c(CC(=O)NCCCC(=O)O)c(C)c3cc2c1C,,inactive: -0.134%
Cc1ccc(C(=O)N/N=C(\CC(C)C)c2ccccc2)cc1,active: 20.6 µM,
Cc1ccc2sc(N(CCCN(C)C)C(=O)c3ccco3)nc2c1C,"inconclusive [inhibitor, single point]",
CCOc1cc2[nH]c(=O)n(CCCC(=O)N(C)Cc3ccccc3)c(=O)c2cc1OCC,"inconclusive [inhibitor, partial curve]",
COc1cccc2cc(C(=O)CC3(O)C(=O)N(Cc4ccccc4)c4ccccc43)c(=O)oc12 (stereo not given),active: 6.51 µM,
O=[N+]([O-])c1ccc(N/N=C/c2ccc(OCc3cccc4ccccc34)cc2)nc1,"inconclusive [inhibitor, partial curve]",
O=c1[nH]c(SCc2ccc(Cl)cc2)nc2ccccc12,,inactive: -11.4%
CCn1c(=O)c(=O)n(CC)c2cc(N3CCCCC3)c(NC(=O)c3ccc(OC)c(OC)c3)cc21,active: 9.2 µM,
COc1cc(C(=O)Nc2sc3c(c2C(N)=O)CCC(C)C3)cc(OC)c1OC (stereo not given),,inactive: -14.6%
COc1ccc(C(=O)NCC(c2ccco2)N2CCc3ccccc3C2)cc1 (stereo not given),"inconclusive [inhibitor, single point]",
Cc1ccccc1NC(C)C(=O)N/N=C/c1ccccc1OCc1cccc(Br)c1 (stereo not given),"inconclusive [inhibitor, single point]",
COc1cc(OC)c(NC(=O)CCc2nc(-c3cccs3)no2)cc1Cl,"inconclusive [inhibitor, single point]",
CC(C)(C)C(C(=O)n1cccc1C#N)c1ccccc1 (stereo not given),,inactive: -16.2%
COc1cn(-c2ccccc2)nc1C(=O)NCc1ccccc1,,inactive: -19.2%
Cc1cccc(N2CCN(C(=O)COc3ccc4ccc(=O)oc4c3)CC2)c1C,"inconclusive [inhibitor, single point]",
